Measured values reported in the antibiotic and cytotoxicity screens of Wong et al. (2023).
Some of the results follow.

tested on: S. aureus RN4220; test: growth inhibition call (relative growth <= 0.2); settings: 50 µM

Growth inhibition call, inactive:
C[C@@H]1CCCCO[C@@H](CN(C)C(=O)c2ccncc2)[C@H](C)CN([C@H](C)CO)C(=O)c2cc(NS(C)(=O)=O)ccc2O1
C[C@@H]1CN([C@H](C)CO)C(=O)c2cc(NC(=O)CCC(F)(F)F)ccc2O[C@@H](C)CCCCO[C@@H]1CN(C)C(=O)C1CCCCC1
Cc1ccc(S(=O)(=O)Nc2ccc3c(c2)C(=O)N([C@H](C)CO)C[C@@H](C)[C@@H](CN(C)C(=O)C2CCCCC2)OCCCC[C@H](C)O3)cc1
Cc1cc(=O)n(C(N)=S)[nH]1
O=C1O[C@H](c2ccccc2)[C@H](c2ccccc2)N2[C@H]1[C@@H](C(=O)N1CCN(c3ncccn3)CC1)[C@]1(C(=O)Nc3ccc(C#CC4(O)CCCCCC4)cc31)[C@H]2c1ccccc1OCCO
O=C(CCO)c1ccc(O)cc1
C[C@@H]1CN([C@H](C)CO)C(=O)c2cc(-c3cccc(C(=O)N(C)C)c3)cnc2O[C@@H]1CN(C)S(=O)(=O)c1ccccc1
COc1ccc(S(=O)(=O)N(C)C[C@H]2Oc3ccc(NC(=O)C4CC4)cc3C(=O)N([C@H](C)CO)C[C@@H]2C)cc1
C[C@@H](NCc1cnc(N(C)C)s1)C(N)=O
CC(=O)N1CCNCC1
CN1CCN(C(=O)C[C@@H]2CC[C@H]3[C@@H](COC[C@@H](O)CN3C(=O)C3CC3)O2)CC1
C[C@@H]1CN([C@H](C)CO)C(=O)c2cc(NC(=O)c3ccccc3)ccc2O[C@@H](C)CCCCO[C@@H]1CN(C)Cc1ccc2c(c1)OCO2
C[C@H](CO)N1C[C@H](C)[C@H](CN(C)Cc2ccc(C(=O)Nc3ccccc3N)cc2)Oc2ccc(NC(=O)Nc3cccc4ccccc34)cc2CC1=O
Cc1ccc(S(=O)(=O)N2C[C@H](O)COC[C@H]3O[C@H](CC(=O)NCc4ccc(Cl)c(Cl)c4)CC[C@@H]32)cc1
CCOC(=O)c1sc(=NN)[nH]c1C
CC(C)NC(=O)Nc1cccc2c1O[C@H](CN(C)S(=O)(=O)c1cccs1)[C@H](C)CN([C@@H](C)CO)C2=O
C[C@H]1CN([C@@H](C)CO)C(=O)c2cccc(NS(=O)(=O)c3cn(C)cn3)c2O[C@@H]1CN(C)C(=O)Nc1ccccc1
C[C@@H]1CN([C@@H](C)CO)C(=O)c2cc(NC(=O)Cc3cn(C)c4ccccc34)ccc2O[C@@H]1CN(C)Cc1ccc(Oc2ccccc2)cc1
